No constants are given. Whether binding was seen depends on the method and setting. Binding seen in cells or lysates may run through a third protein. Some results given as binding are weak or reduced against the parent protein; the word gives no strength. Tags and fused reporters may be left off the sequences shown.
T1: GFP-C15ORF41 (full-length; aa1-281) from the bicistronic plasmids (human) (UniProt Q9Y2V0)
T1 sequence: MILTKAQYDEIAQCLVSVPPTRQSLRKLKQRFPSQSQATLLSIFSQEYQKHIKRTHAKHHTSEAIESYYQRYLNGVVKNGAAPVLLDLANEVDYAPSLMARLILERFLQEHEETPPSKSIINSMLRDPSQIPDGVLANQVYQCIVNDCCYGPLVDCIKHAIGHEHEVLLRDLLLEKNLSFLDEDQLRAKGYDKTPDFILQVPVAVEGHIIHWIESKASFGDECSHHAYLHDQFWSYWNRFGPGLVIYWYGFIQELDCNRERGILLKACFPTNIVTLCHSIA

T2: GFP-tagged C15ORF41, U2OS cells (human) (UniProt Q9Y2V0)
T2 sequence: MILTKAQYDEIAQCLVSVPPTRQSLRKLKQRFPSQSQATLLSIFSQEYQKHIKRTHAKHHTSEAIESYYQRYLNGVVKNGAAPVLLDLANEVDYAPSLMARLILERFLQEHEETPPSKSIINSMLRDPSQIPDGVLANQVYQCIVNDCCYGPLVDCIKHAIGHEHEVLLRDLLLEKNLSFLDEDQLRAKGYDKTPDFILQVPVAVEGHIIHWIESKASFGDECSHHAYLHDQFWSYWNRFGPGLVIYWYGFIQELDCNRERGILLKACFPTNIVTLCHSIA


Legend:
[1] = molecular target: T1, GFP-C15ORF41 (full-length; aa1-281) from the bicistronic plasmids (human); assay: co-IP; U2OS cells transiently transfected with bicistronic vectors co-expressing GFP-C15ORF41 and full-length or truncated RFP-Codanin-1; GFP-Trap beads; two-colour western blotting
[2] = molecular target: T2, GFP-tagged C15ORF41, U2OS cells (human); assay: co-IP; GFP-Trap affinity beads, ~0.5 mg of lysate of U2OS cells co-expressing GFP- and RFP-tagged proteins; western blotting with anti-GFP and anti-RFP

| binding [1] | binding [2] | Binder |
| --- | --- | --- |
| no binding |  | RFP-Codanin-1 M1-Q1000 (bicistronic plasmid) (domain or fragment, UniProt Q8IWY9 1-1000) MAAVLESLLREEVSVAAVVRWIARSTQGSEDNAGEAAALSSLRALRKEFVPFLLNFLREQSSRVLPQGPPTPAKTPGASAALPGRPGGPPRGSRGARSQLFPPTEAQSTAAEAPLARRGGRRRGPGPARERGGRGLEEGVSGESLPGAGGRRLRGSGSPSRPSLTLSDPPNLSNLEEFPPVGSVPPGPTGTKPSRRINPTPVSEERSLSKPKTCFTSPPISCVPSSQPSALDTSPWGLGLPPGCRSLQEEREMLRKERSKQLQQSPTPTCPTPELGSPLPSRTGSLTDEPADPARVSSRQRLELVALVYSSCIAENLVPNLFLELFFVFQLLTARRMVTAKDSDPELSPAVLDSLESPLFQSIHDCVFFAVQVLECHFQVLSNLDKGTLKLLAENERLLCFSPALQGRLRAAYEGSVAKVSLVMPPSTQAVSFQPETDNRANFSSDRAFHTFKKQRDVFYEVLREWEDHHEEPGWDFEKGLGSRIRAMMGQLSAACSHSHFVRLFQKQLLQMCQSPGGAGGTVLGEAPDVLSMLGADKLGRLWRLQERLMAPQSSGGPCPPPTFPGCQGFFRDFILSASSFQFNQHLMDSLSLKIQELNGLALPQHEPNDEDGESDVDWQGERKQFAVVLLSLRLLAKFLGFVAFLPYRGPEPPPTGELQDSILALRSQVPPVLDVRTLLQRGLQARRAVLTVPWLVEFLSFADHVVPLLEYYRDIFTLLLRLHRSLVLSQESEGKMCFLNKLLLLAVLGWLFQIPTVPEDLFFLEEGPSYAFEVDTVAPEHGLDNAPVVDQQLLYTCCPYIGELRKLLASWVSGSSGRSGGFMRKITPTTTTSLGAQPSQTSQGLQAQLAQAFFHNQPPSLRRTVEFVAERIGSNCVKHIKATLVADLVRQAESLLQEQLVTQGEEGGDPAQLLEILCSQLCPHGAQALALGREFCQRKSPGAVRALLPEETPAAVLSSAENIAVGLATEKACAWLSANITALIRREVKAAVSRTLRAQ |
|  | binds | RFP-tagged Codanin-1 R714W, U2OS cells (protein, UniProt Q8IWY9 1-1227) MAAVLESLLREEVSVAAVVRWIARSTQGSEDNAGEAAALSSLRALRKEFVPFLLNFLREQSSRVLPQGPPTPAKTPGASAALPGRPGGPPRGSRGARSQLFPPTEAQSTAAEAPLARRGGRRRGPGPARERGGRGLEEGVSGESLPGAGGRRLRGSGSPSRPSLTLSDPPNLSNLEEFPPVGSVPPGPTGTKPSRRINPTPVSEERSLSKPKTCFTSPPISCVPSSQPSALDTSPWGLGLPPGCRSLQEEREMLRKERSKQLQQSPTPTCPTPELGSPLPSRTGSLTDEPADPARVSSRQRLELVALVYSSCIAENLVPNLFLELFFVFQLLTARRMVTAKDSDPELSPAVLDSLESPLFQSIHDCVFFAVQVLECHFQVLSNLDKGTLKLLAENERLLCFSPALQGRLRAAYEGSVAKVSLVMPPSTQAVSFQPETDNRANFSSDRAFHTFKKQRDVFYEVLREWEDHHEEPGWDFEKGLGSRIRAMMGQLSAACSHSHFVRLFQKQLLQMCQSPGGAGGTVLGEAPDVLSMLGADKLGRLWRLQERLMAPQSSGGPCPPPTFPGCQGFFRDFILSASSFQFNQHLMDSLSLKIQELNGLALPQHEPNDEDGESDVDWQGERKQFAVVLLSLRLLAKFLGFVAFLPYRGPEPPPTGELQDSILALRSQVPPVLDVRTLLQRGLQARRAVLTVPWLVEFLSFADHVVPLLEYYWDIFTLLLRLHRSLVLSQESEGKMCFLNKLLLLAVLGWLFQIPTVPEDLFFLEEGPSYAFEVDTVAPEHGLDNAPVVDQQLLYTCCPYIGELRKLLASWVSGSSGRSGGFMRKITPTTTTSLGAQPSQTSQGLQAQLAQAFFHNQPPSLRRTVEFVAERIGSNCVKHIKATLVADLVRQAESLLQEQLVTQGEEGGDPAQLLEILCSQLCPHGAQALALGREFCQRKSPGAVRALLPEETPAAVLSSAENIAVGLATEKACAWLSANITALIRREVKAAVSRTLRAQGPEPAARGERRGCSRACEHHAPLPSHLISEIKDVLSLAVGPRDPDEGVSPEHLEQLLGQLGQTLRCRQFLCPPAEQHLAKCSVELASLLVADQIPILGPPAQYRLERGQARRLLHMLLSLWKEDFQGPVPLQLLLSPRNVGLLADTRPREWDLLLFLLRELVEKGLMGRMEIEACLGSLHQAQWPGDFAEELATLSNLFLAEPHLPEPQLRACELVQPNRGTVLAQS |
|  | binds | RFP-tagged Codanin-1 R1042W, U2OS cells (protein, UniProt Q8IWY9 1-1227) MAAVLESLLREEVSVAAVVRWIARSTQGSEDNAGEAAALSSLRALRKEFVPFLLNFLREQSSRVLPQGPPTPAKTPGASAALPGRPGGPPRGSRGARSQLFPPTEAQSTAAEAPLARRGGRRRGPGPARERGGRGLEEGVSGESLPGAGGRRLRGSGSPSRPSLTLSDPPNLSNLEEFPPVGSVPPGPTGTKPSRRINPTPVSEERSLSKPKTCFTSPPISCVPSSQPSALDTSPWGLGLPPGCRSLQEEREMLRKERSKQLQQSPTPTCPTPELGSPLPSRTGSLTDEPADPARVSSRQRLELVALVYSSCIAENLVPNLFLELFFVFQLLTARRMVTAKDSDPELSPAVLDSLESPLFQSIHDCVFFAVQVLECHFQVLSNLDKGTLKLLAENERLLCFSPALQGRLRAAYEGSVAKVSLVMPPSTQAVSFQPETDNRANFSSDRAFHTFKKQRDVFYEVLREWEDHHEEPGWDFEKGLGSRIRAMMGQLSAACSHSHFVRLFQKQLLQMCQSPGGAGGTVLGEAPDVLSMLGADKLGRLWRLQERLMAPQSSGGPCPPPTFPGCQGFFRDFILSASSFQFNQHLMDSLSLKIQELNGLALPQHEPNDEDGESDVDWQGERKQFAVVLLSLRLLAKFLGFVAFLPYRGPEPPPTGELQDSILALRSQVPPVLDVRTLLQRGLQARRAVLTVPWLVEFLSFADHVVPLLEYYRDIFTLLLRLHRSLVLSQESEGKMCFLNKLLLLAVLGWLFQIPTVPEDLFFLEEGPSYAFEVDTVAPEHGLDNAPVVDQQLLYTCCPYIGELRKLLASWVSGSSGRSGGFMRKITPTTTTSLGAQPSQTSQGLQAQLAQAFFHNQPPSLRRTVEFVAERIGSNCVKHIKATLVADLVRQAESLLQEQLVTQGEEGGDPAQLLEILCSQLCPHGAQALALGREFCQRKSPGAVRALLPEETPAAVLSSAENIAVGLATEKACAWLSANITALIRREVKAAVSRTLRAQGPEPAARGERRGCSRACEHHAPLPSHLISEIKDVLSLAVGPWDPDEGVSPEHLEQLLGQLGQTLRCRQFLCPPAEQHLAKCSVELASLLVADQIPILGPPAQYRLERGQARRLLHMLLSLWKEDFQGPVPLQLLLSPRNVGLLADTRPREWDLLLFLLRELVEKGLMGRMEIEACLGSLHQAQWPGDFAEELATLSNLFLAEPHLPEPQLRACELVQPNRGTVLAQS |

Source: PMC7261414, “A complex comprising C15ORF41 and Codanin-1: the products of two genes mutated in congenital dyserythropoietic anaemia type I (CDA-I)” (Biochemical Journal, 2020)
